Test results published in the supplement of paper PMC3334620.
Over roughly 33,000 sequences, “E-score (-0.5 to 0.5)” has its median near -0.054; the highest 2% begin near 0.35. The list shows a part of the results.

Target: T1, Stb5 (UniProt P38699)
T1 sequence: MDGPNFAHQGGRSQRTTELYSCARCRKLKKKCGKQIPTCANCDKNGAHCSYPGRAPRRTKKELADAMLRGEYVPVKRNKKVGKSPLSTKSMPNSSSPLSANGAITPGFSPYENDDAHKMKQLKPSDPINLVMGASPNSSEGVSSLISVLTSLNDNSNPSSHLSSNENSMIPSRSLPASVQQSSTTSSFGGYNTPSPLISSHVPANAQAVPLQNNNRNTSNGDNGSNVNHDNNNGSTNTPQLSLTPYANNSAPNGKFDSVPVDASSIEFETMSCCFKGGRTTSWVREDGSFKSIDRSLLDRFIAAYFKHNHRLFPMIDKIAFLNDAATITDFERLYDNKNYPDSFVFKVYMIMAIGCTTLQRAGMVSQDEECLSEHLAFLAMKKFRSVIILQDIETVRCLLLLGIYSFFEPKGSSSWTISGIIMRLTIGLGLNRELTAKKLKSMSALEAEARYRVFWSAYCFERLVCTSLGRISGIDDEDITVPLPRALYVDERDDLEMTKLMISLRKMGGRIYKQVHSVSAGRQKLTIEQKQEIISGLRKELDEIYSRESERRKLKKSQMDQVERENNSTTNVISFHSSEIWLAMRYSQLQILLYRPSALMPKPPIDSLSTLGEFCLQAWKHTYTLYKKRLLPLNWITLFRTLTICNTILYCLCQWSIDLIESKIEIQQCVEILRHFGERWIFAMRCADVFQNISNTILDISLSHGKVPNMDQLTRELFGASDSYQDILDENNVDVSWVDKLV
Experiment: PBM E-score (8-mer binding enrichment) (E-score (-0.5 to 0.5)); higher = stronger / more preferred TF binding; most listed sequences are background and not binding sites
Details: protein concentration: 200 nM; construct: GST-full length
How it was run: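 PURExpress in vitro transcription/translation supplied GST-tagged yeast transcription factors, either full-length or DNA-binding domain. Applied at about 100-200 nM to universal all-10-mer Agilent arrays double-stranded by primer extension, the bound protein was detected with fluorescent anti-GST. E-scores, modified Wilcoxon-Mann-Whitney statistics, were given by the Universal PBM Analysis Suite to ungapped eight-base words pooled with their reverse complements after masliner normalisation.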

Sequence	PBM E-score
ATACGGGC	0.103
CAGTCTGG	-0.133
AAGTCAAA	-0.0252
AAGCACGG	0.0437
TGAGGACA	-0.194
GCTCGCAC	0.0814
TCTAACCA	-0.167
CGGCCGGA	0.242
CCTACAGC	0.0176
AAACATTA	-0.125
CCGCTTAG	0.188
CCCACAGG	0.124
CAGAAATA	0.036
CTCCGAAG	0.227
AACGGCAC	0.306
ATGCCCTC	-0.0595
GAGCTCGA	-0.257
ATCATCGC	0.0263
CCTTTGTC	-0.103
CTACAGAA	-0.216
CCCTTGTA	-0.165
TCCGGGAA	0.212
CAGAGATC	-0.177
TAGGCACA	-0.21
GTGATTTA	0.0455

Sequence	PBM E-score
CCCTCACG	-0.043
AATCGTGG	-0.208
AATTTTTG	-0.207
AGACGACG	-0.0652
ATCCAGTA	-0.123
GCATGCCC	0.12
AAAAGGAG	-0.145
GGGTTGAC	0.0256
CCTGACTC	-0.153
CATCTTCA	-0.148
CAGAGATG	-0.119
GCCCATCA	-0.157
AGACCTTC	-0.109
AACTGAAA	-0.16
CTCTCGCA	-0.257
CCCAAGAC	-0.163
GCGCCCGC	0.154
GCGATCCC	-0.095
CATCGGTC	0.312
CCAGCGCG	-0.0713
GCAAGAAC	-0.104
TCAATTGA	-0.226
TACGCATA	-0.129
CTTGTCGC	0.0315
TATCGAAA	0.0537

Sequence	PBM E-score
ACTGAGAT	-0.343
AGGGAACA	-0.0537
AACTAAAG	-0.12
CTTGGGCC	0.0399
AAATATGG	-0.0109
ATCAAGGG	-0.182
CAGGATTA	-0.062
GTATCAAC	0.145
ACGACGAT	-0.123
CGAGCACC	-0.0416
CAAAAATA	0.064
GGTTGTAC	0.106
GTCGAAAC	-0.112
ATGAACGC	-0.0754
GCCACGCC	-0.0483
ATAGCGTC	-0.0559
CTACAGGC	-0.0338
CACTTCGA	-0.145
ACATGTTG	-0.0674
CCAAATCC	-0.109
ACATTTCC	-0.0628
GCGAGGGA	-0.17
GATTCAGC	-0.0886
TGAAGAAA	-0.121
GAAGACAA	-0.0999

Sequence	PBM E-score
CAATAATG	0.151
TCCTATAA	0.0414
GCCTAGAA	-0.0279
CTATCCGA	0.0404
CAGACTGG	-0.267
CCACATCC	-0.183
CAGGTGCG	0.00443
AGTCGTGC	-0.232
AGGTCCCC	-0.198
ATGTTAGC	0.0396
AGTTGCAC	-0.104
TAGTTAGA	-0.0913
ACTCAATC	-0.201
ACGTTCGC	-0.0988
TATGGACA	-0.18
CCATGAAC	-0.1
AGAACGGC	0.203
AATCAACG	-0.0873
ACTGGCTC	-0.151
AGGCGACA	-0.106
ATACATTA	-0.248
AGGTTCGG	0.214
GATATGGA	0.208
ATCCGTGG	0.248
AATCCGAA	0.0775

Sequence	PBM E-score
GCATTTCA	-0.00328
CAGGGAAA	-0.16
AAGCTGGC	-0.182
AGACCGGC	0.313
AATGTCCC	0.166
CACATCTA	-0.0912
GTACCCAA	-0.235
CAGAACCC	0.0356
CTGCCCTC	-0.235
GACTAGTC	-0.117
AGTATACC	0.192
GCGACCAC	-0.0722
AGAACCGA	0.319
GGCACAAC	0.015
TGTTCCAA	-0.275
CAAAGGTA	-0.0782
CCTCACAC	-0.186
ACTACTGC	-0.0129
GTTCCTAA	0.0467
ACATTGAC	-0.0877
CCAACTCA	-0.182
GCATGAGA	-0.274
CGAGCTCC	-0.119
AGGGGTGA	-0.0425
CAAACGGG	0.284

Sequence	PBM E-score
CTCGCTGA	-0.107
CCGCAGCG	0.268
GAACCGTA	-0.0232
GCGTAAAC	0.218
ATAAAACG	0.207
ACTATCGA	-0.104
ACTTTGGC	0.108
CCTTGGCC	-0.202
CAACGCTC	-0.0813
CAGAGGAG	-0.183
AGTCGTAG	-0.232
GCGTTTCC	0.00369
GCATATTA	0.148
AGCGTGAT	-0.0779
GTACGTCA	-0.16
TACAGGAA	-0.0329
CTACCTTA	0.0492
ATGATTCG	0.0529
GAGTTCTA	0.023
ATTGGCCG	0.0761
CCTTTCAC	-0.0206
CAGACGCC	0.0387
ATTTGCAG	-0.0362
GCGTTCCA	-0.078
CCGCCCAA	0.216

Sequence	PBM E-score
AGGCGAAG	-0.0229
TATAATGA	-0.02
CAGGAATC	-0.0969
CGTATCCC	0.176
AGAACCAG	-0.1
CGCACCAG	0.0585
GGTTCAAA	0.194
ATTAAGTG	-0.0501
GCGCCACC	-0.0492
GCGCGGGA	0.202
ATTTCATC	-0.0899
GCGTTACA	0.107
GCAGCAGA	-0.11
ATCTGTGG	-0.104
GCCCTGTA	-0.0393
AGTACTTC	-0.0225
ATAATCCG	0.103
GTTTTCTA	0.12
ATTCCGGA	0.115
GCAAAAAA	-0.0328
GAAAAAGA	-0.168
CAGGAGAA	-0.164
AATCCGTG	0.101
CGTGCGGA	0.126
CTAGGTTC	-0.066

Sequence	PBM E-score
GGTACACA	0.229
CACAGATG	-0.304
ACACCGCG	0.444
GAACCGGC	0.213
CCTTATCA	-0.174
CCTGTGAG	-0.234
ACCCAGAC	-0.0931
ACATTCTC	-0.194
GCCCATCC	-0.2
AATCGGCT	0.113
CAAAGTTC	0.0325
CTTATTAA	0.0392
AGTATTCG	-0.0487
CAGGGCAG	-0.252
CATTGTGC	-0.16
TACTAACA	-0.0879
CGGCGGCC	0.242
TGGGGAAA	0.0424
CGGTCCTA	0.448
ACATTGCT	-0.206
CTTGTTGA	-0.193
AATTCTAA	0.0654
AAACATCG	0.128
CAGCATAA	0.00965
GGATTCAA	-0.101

Sequence	PBM E-score
CCTAAATC	0.189
CATAAAAA	-0.0509
GACGAGGC	-0.00106
TCTTCCAA	-0.0975
TAGCCACA	-0.259
AACACCTT	0.197
AGTAGACT	-0.0924
GACGTTCC	-0.119
GAATACTA	-0.0399
ATAGGTTA	0.0214
ACCGTCGA	0.286
ATTGAGAA	-0.0471
GGCGTAAA	0.169
CGTCGAAG	-0.0996
ACCTGTCG	0.139
AGTGGTAA	-0.159
CGTCCATC	0.0509
CGAAGATC	-0.0335
TGACTAAA	-0.163
CTTGATGA	0.0228
CTAAATAC	0.0967
TGGGCCCA	-0.136
TAACCAAA	-0.149
AAAAGGCT	-0.0922
CCGACATA	0.297

Sequence	PBM E-score
ACTAGGTA	-0.25
AGTCTCAA	-0.108
GAGTGGCA	-0.141
ACTACCTG	-0.13
GTACACAC	0.0547
ACAAGGCA	-0.129
CAGCCACG	-0.0791
AAACTCTT	-0.233
CTAGTGCC	0.256
GACAAGGA	-0.0928
CCTTGGAA	-0.0512
GTGGCGGA	0.279
AGGATACA	-0.238
AATCCGTC	0.179
GAACGGGA	0.247
ACCCAAGC	-0.111
CGAAGAAG	-0.145
AGGGATTA	0.0519
AGAAATCC	0.0394
CCTGAGCA	-0.127
ACTACCAC	-0.111
GCACCGCC	0.377
AGCAGGGC	-0.115
ACGATCTG	-0.179
CGCCCTGA	-0.099

Sequence	PBM E-score
CTGGTATC	-0.254
GCATGAAA	-0.227
GATCGGTA	0.306
AAGACATT	-0.267
ACATGGAG	-0.0962
GAGCTCCA	-0.203
ACAAGTGT	-0.136
ATAATTAA	-0.0125
AGCATCAC	-0.133
CACAAACC	-0.197
ATGCACGA	0.0374
AACTACAT	-0.269
CCTCCAGG	-0.318
ACTTCTAT	-0.24
CTCAGGAC	-0.0868
AAGAACCG	0.262
CATCTCTA	-0.0228
ACATTCCT	-0.208
AGCCGAAC	-0.0834
CCCCCAAG	-0.233
CCAGCACG	-0.229
GCAACCTA	-0.349
GCGGTTCA	0.0363
GACCGCAA	0.248
CGCCGATC	0.363

Sequence	PBM E-score
TGGGACAA	-0.192
GCCAAAAA	-0.0844
ATAAACAC	0.165
ACGAACAG	-0.198
TAACAGCA	-0.0283
ACGGTTAG	-0.0257
GCTGAGGA	-0.0641
AGGAATGC	-0.266
AATCCGAG	0.00616
AACAGCAC	0.0322
CTTTGACC	0.117
TCTTTCAA	-0.0737
GGCCTTGA	0.0758
GCATCGGA	0.27
CGGATTCA	0.179
ACGTACCA	-0.172
AATCTCTC	-0.145
ACCACTCG	-0.142
CCCTCCTC	-0.276
GTAGTGGA	-0.0856
AGTCTTTG	-0.363
AAATAAGT	-0.098
ATAGCAGC	0.0423
ACCCTAGC	0.00919
ATACATAC	-0.0979

Sequence	PBM E-score
CAAGTTTA	-0.0173
GCGGTTAC	0.275
GATCGAAC	-0.0588
CCCAGTGC	-0.118
GTTTTGCA	-0.107
GAGCTTCA	-0.0106
AGTTTCTG	-0.117
CGAACGAA	-0.0975
AGCTCTCA	-0.109
CTAAGCAA	-0.0185
GTTTAGTA	-0.0646
AAGCTCTG	-0.32
ACGAATTG	-0.124
CCACCTGC	-0.227
CAGTCATC	-0.027
CGTACCGA	0.205
CCTTTCTC	-0.297
CTGCATCC	0.0192
ACAAACAA	-0.0945
ATATATTC	0.158
CCTAATTA	-0.183
CCCCCATC	-0.0751
AATCCGGC	0.198
GTCCTTAA	-0.0925
TAGGTCAA	-0.135

Sequence	PBM E-score
CGTAATAG	-0.0468
TCCGTCCA	0.249
ATAGTCTA	-0.0767
CGTCATGA	-0.0111
ATACCGAG	0.224
AATTAGGC	-0.0196
CGTGAACA	-0.0606
ATATGTGC	0.168
CTCATTTC	-0.154
ACTGGTAC	-0.031
ATTTGCCC	0.147
GGGTATTA	0.243
ACCCGAAA	-0.00369
ACGAGGTC	-0.153
GCGGGTAA	0.124
AGCATTAT	-0.206
CATAGAGG	-0.173
GGCCGTAC	0.23
TACATCAA	0.0251
